Data set [1] concerns the molecule itself. The data set can be described thus: cryo-EM structure; detergent-solubilized (digitonin) cysteine free E. coli F1Fo ATP synthase at 11 μM with 10 mM MgADP, 22 °C for 30 s before freezing; 300 kV; nine sub-states and a Fo focused map of Sub-state 3A.
Data set [2] deals with T1, E. coli F1Fo ATP synthase subunit a (E. coli, UniProt P0AB98 1-271).
T1 construct: ATP synthase subunit a of E. coli, as it stands in the cysteine free F1Fo ATP synthase (all cysteines of the enzyme substituted with alanine); The first four residues were not resolved in the maps; also called stator subunit a; Fo stator
T1 sequence (P0AB98 whole entry): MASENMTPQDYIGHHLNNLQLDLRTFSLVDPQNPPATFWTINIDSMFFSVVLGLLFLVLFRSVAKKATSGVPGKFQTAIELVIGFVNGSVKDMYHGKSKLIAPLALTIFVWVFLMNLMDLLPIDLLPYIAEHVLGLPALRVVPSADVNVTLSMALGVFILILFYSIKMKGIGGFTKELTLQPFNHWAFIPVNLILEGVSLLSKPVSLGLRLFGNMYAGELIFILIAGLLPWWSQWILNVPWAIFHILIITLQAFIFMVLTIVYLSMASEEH
The description is as above. Particulars: both partners purified.

B1: E. coli F1Fo ATP synthase subunit c (natural protein)
chain: MENLNMDLLYMAAAVMMGLAAIGAAIGIGILGGKFLEGAARQPDLIPLLRTQFFIVMGLVDAIPMIAVGLGLYVMFAVA
notes: ATP synthase subunit c of E. coli, as it stands in the cysteine free F1Fo ATP synthase (all cysteines of the enzyme substituted with alanine); Ten copies form the c-ring of the Fo motor; also called c-ring; c10 ring
As a reminder, the stoichiometry N is a count of units in the complex or per binding partner. B1: the “stoichiometry N” value in data set [1] is 10. The binding result in data set [2] was “binds”.

The values are drawn from publication PMC7251095, “Cryo-EM structures provide insight into how E. coli F1Fo ATP synthase accommodates symmetry mismatch” (Nature Communications, 2020).
